In the data set the test system is ATP. Nature of the data set: switch fluorescence ratio, 500 uM ATP over buffer (Cy3 cluster intensity, sum of 5 cycles each) (fold (ratio)); higher = stronger signal-on switching upon ATP binding; sequences stand for … in TCGTCGGCAGCGTCAGATGTGTATAAGAGACAGTTTTTTTTTTTTTTTTTTTTTTTTT…TC. As to conditions: aptamer strand: ATP DNA aptamer (quencher-CACCTGGGGGAGTATTGCGGAGGAAGG + anchor), 100 nM annealed; ATP concentration: 500 uM; one replicate. In short, it runs like this:
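Per cluster, summed Cy3 intensity from the target cycles was divided by that from the buffer cycles to give the fluorescence ratio, then averaged per switch-domain sequence. Clusters outside 100-1000 RFU were excluded. The Cy3-labelled switching-strand clusters, on a modified Illumina MiSeq flow-cell, were annealed to 100 nM quencher-labelled ATP aptamer and imaged in selection buffer, then after 15 min with 500 uM ATP at 22 °C, for five cycles with NaOH stripping and re-annealing between them.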

Values marked as one replicate rest on one cluster of the flow cell; about a third of the high ones do not repeat.
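Note: ATP exposure 15 min at 22 °C before imaging.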

Take GTCCTTTGCT: the switch fluorescence ratio was 0.988.

Consider ATTCATATCT, for which the switch fluorescence ratio was 1.05.

On to ACCGTCCACA, for which the switch fluorescence ratio is 1.25.

Turning to ACGGGGCGCA, the switch fluorescence ratio was found to be 1.02.

Take TCGGTGGATG: the switch fluorescence ratio was found to be 0.987.

As for GAAGTACGAA, the switch fluorescence ratio was 1.06.

Consider CCAGCTTTCT, for which the switch fluorescence ratio was determined as 1.03.

As to ATATCCCGCT, the switch fluorescence ratio came to 1.08.

For the sequence TAGAGGAAAC, the switch fluorescence ratio was 1.01.

As for TCAAACGATA, the switch fluorescence ratio came out at 1.04.

Consider GGAGGGGAAA, for which the switch fluorescence ratio came to 1.03.

On to AAGAGGTATT, for which the switch fluorescence ratio worked out at 0.98.

For the sequence CTCACGTCTC, the switch fluorescence ratio came out at 1.11.

On to GGCGTTAAGT, for which the switch fluorescence ratio is 1.01.

As for TGCCAACTTT, the switch fluorescence ratio was determined as 0.93.

In the case of GAGGGCAAAG, the switch fluorescence ratio stood at 0.977.

Regarding GCTCAGTCCA, the switch fluorescence ratio worked out at 1.03.

For CTGTTGTGTT, the switch fluorescence ratio came to 0.977.

For TTTGCTGATT, the switch fluorescence ratio was determined as 1.01.

CTCAGCCCCG: the switch fluorescence ratio was 1.03.

As for TTCGGGGCGA, the switch fluorescence ratio turned out to be 1.01.

With TCGCTCCATT, the switch fluorescence ratio came out at 1.04.

Consider AGTGATTCGG, for which the switch fluorescence ratio was found to be 0.971.

GCGATGTCGG: the switch fluorescence ratio came to 1.

In the case of TCGGCCACTT, the switch fluorescence ratio turned out to be 1.04.

For the sequence ATTAGGTACT, the switch fluorescence ratio amounted to 1.02.

For the sequence TTACCCCAAA, the switch fluorescence ratio stood at 1.01.

Regarding TTGCCATCGA, the switch fluorescence ratio came out at 0.988.

CACAAGAGGG: the switch fluorescence ratio was determined as 1.02.

With ATGACCAGGG, the switch fluorescence ratio turned out to be 1.12.

For the sequence TTCCATCGCA, the switch fluorescence ratio was 3.44.

Turning to TTAGGCGGCG, the switch fluorescence ratio is 0.954.

Take GTGGCTGGCG: the switch fluorescence ratio worked out at 0.924.

Consider TACTGTCTCA, for which the switch fluorescence ratio came out at 0.988.

As for AGCCAGTAT, the switch fluorescence ratio was found to be 1.03.

With ACCGAAGTA, the switch fluorescence ratio came out at 1.02.

Regarding TGCCGAAGTA, the switch fluorescence ratio came to 1.01.

Regarding AGAGAGCGAT, the switch fluorescence ratio turned out to be 0.973.

Consider TAACAGTTA, for which the switch fluorescence ratio was found to be 1.01.

CAAGCGGGAG: the switch fluorescence ratio was 0.997.

For the sequence GGACACGTGA, the switch fluorescence ratio came out at 1.

Consider CAGGGATGGC, for which the switch fluorescence ratio was determined as 0.968.

As to CGCGAGGTCC, the switch fluorescence ratio came to 1.1.

As for ATATTATCG, the switch fluorescence ratio is 1.03.

On to ATGTGGACTT, for which the switch fluorescence ratio worked out at 1.

CGGTATGAAA: the switch fluorescence ratio is 0.949.

Turning to GACTGAGTGG, the switch fluorescence ratio came to 0.976.

With GATTTATATG, the switch fluorescence ratio was determined as 1.

As to AGTTATCTTC, the switch fluorescence ratio came out at 0.994.

Consider CGGCTGGTGC, for which the switch fluorescence ratio was 1.05.

As for TTTAGTATAC, the switch fluorescence ratio stood at 1.05.

On to TTAGTGCGTT, for which the switch fluorescence ratio worked out at 0.969.

Regarding GATTACAAAA, the switch fluorescence ratio turned out to be 1.03.

For the sequence GCTCCAGATA, the switch fluorescence ratio was determined as 1.19.

CCGTTCTAAG: the switch fluorescence ratio came to 1.02.

As to AGAATCGTGT, the switch fluorescence ratio worked out at 1.04.

On to TGGTTAAGCC, for which the switch fluorescence ratio was 0.968.

Regarding TTAACGGAAT, the switch fluorescence ratio was found to be 1.05.

Take GAGTTGATTG: the switch fluorescence ratio was determined as 0.998.

Take CGTTATAGGG: the switch fluorescence ratio stood at 0.975.

As to GTCGGTTGTA, the switch fluorescence ratio was 0.972.

Regarding TGAATCTACT, the switch fluorescence ratio was determined as 0.993.

TGAAAGGAA: the switch fluorescence ratio is 1.04.

Regarding AGAATGAGCA, the switch fluorescence ratio was 0.994.

Regarding ATATCCTACG, the switch fluorescence ratio stood at 1.23.

As to AGAAGTCTGC, the switch fluorescence ratio came to 1.01.

On to AATTCACCGA, for which the switch fluorescence ratio was 1.05.

As for GTTAGAGCTG, the switch fluorescence ratio was found to be 1.09.

Regarding GGCGGGCGGT, the switch fluorescence ratio is 0.977.

Take GAGCACCTAA: the switch fluorescence ratio amounted to 1.06.

For AAGGTGCTGT, the switch fluorescence ratio was 1.11.

On to GCCAACTTAG, for which the switch fluorescence ratio is 1.02.

For AGTGCTGGTT, the switch fluorescence ratio worked out at 0.971.

AACAGCAGGT: the switch fluorescence ratio worked out at 1.02.

Take TCATGCAGTT: the switch fluorescence ratio came to 0.989.

Regarding TCGTAATTTA, the switch fluorescence ratio is 1.

Consider TCGGCTTTTG, for which the switch fluorescence ratio came out at 1.

Regarding ATAGTAAGGG, the switch fluorescence ratio amounted to 0.934.

In the case of GAGACATGAG, the switch fluorescence ratio is 1.03.

Regarding ACGGGCAACT, the switch fluorescence ratio came out at 1.11.

For ACAATGCACG, the switch fluorescence ratio was 1.09.

In the case of ATGGTCAAGT, the switch fluorescence ratio worked out at 0.97.

For the sequence ATGTAGGTTT, the switch fluorescence ratio was found to be 1.02.

GATGGCAGGT: the switch fluorescence ratio amounted to 1.02.

Take TTTCACGGT: the switch fluorescence ratio is 1.04.

CTAGCATTCA: the switch fluorescence ratio was 1.01.

With TATGTCAATC, the switch fluorescence ratio stood at 0.998.

As for TAATCTATGG, the switch fluorescence ratio turned out to be 0.986.

With TATTACTAGT, the switch fluorescence ratio was determined as 1.02.

As to TTGTTTC, the switch fluorescence ratio came to 0.977.

As to TATCCCGTGC, the switch fluorescence ratio was determined as 1.1.

Consider GGTGACATTG, for which the switch fluorescence ratio was 1.03.

For the sequence AAATAGGGCG, the switch fluorescence ratio is 0.99.

Regarding AGGGTCGGTC, the switch fluorescence ratio came to 1.01.

On to AGTTTCTGTC, for which the switch fluorescence ratio is 1.06.

For GGAAGTACAT, the switch fluorescence ratio was found to be 1.43.

On to ACTCGTTTGG, for which the switch fluorescence ratio amounted to 1.06.

For the sequence TATTAACGAA, the switch fluorescence ratio came to 1.02.

Take CGATTTAGG: the switch fluorescence ratio is 1.01.

On to GATTAAAGTA, for which the switch fluorescence ratio was determined as 1.01.

Consider CTTAGCACTG, for which the switch fluorescence ratio is 1.02.

For ATGAGACTGA, the switch fluorescence ratio was determined as 0.991.

Turning to TAATGCTGGG, the switch fluorescence ratio was determined as 1.05.

As to TGCTGGTTTC, the switch fluorescence ratio worked out at 0.974.

With CTTCAACTCT, the switch fluorescence ratio was 1.24.

As for CCAAAGTGTA, the switch fluorescence ratio stood at 1.06.

GAATCGAGGC: the switch fluorescence ratio stood at 0.986.

On to GAAATTTGTC, for which the switch fluorescence ratio turned out to be 1.06.

As for CATGAACTTT, the switch fluorescence ratio worked out at 1.05.

Take ATGCCGAAGA: the switch fluorescence ratio is 0.98.

Consider TAACGGAGGA, for which the switch fluorescence ratio amounted to 0.976.

Consider ATGGGCTTGT, for which the switch fluorescence ratio came to 0.989.

As to TTGATCAATT, the switch fluorescence ratio came to 1.01.

As to TTTCGTCCGT, the switch fluorescence ratio came to 1.1.

For ATTGTGTAAC, the switch fluorescence ratio is 1.03.

Regarding TTCAATTTTA, the switch fluorescence ratio worked out at 0.982.

With AATATAGCTG, the switch fluorescence ratio stood at 1.09.

For the sequence CCCTTACGCA, the switch fluorescence ratio was determined as 1.86.

In the case of GGTTCCGAAT, the switch fluorescence ratio was found to be 1.06.

As to TCCAGGCTC, the switch fluorescence ratio was found to be 1.1.

Source of the values: the supplement of paper PMC10126150.
